Reference: article PMC10239115
These are yes or no findings as the source states them, for the method shown. In cells and extracts the contact can be indirect. Some results given as binding are weak or reduced against the parent protein; the word gives no strength. For part of these data: Where a sequence is shown, tags or fusion partners need not be part of it.

Sequences of proteins named here, by UniProt entry; tags and fusion partners are left off.
UniProt O14543: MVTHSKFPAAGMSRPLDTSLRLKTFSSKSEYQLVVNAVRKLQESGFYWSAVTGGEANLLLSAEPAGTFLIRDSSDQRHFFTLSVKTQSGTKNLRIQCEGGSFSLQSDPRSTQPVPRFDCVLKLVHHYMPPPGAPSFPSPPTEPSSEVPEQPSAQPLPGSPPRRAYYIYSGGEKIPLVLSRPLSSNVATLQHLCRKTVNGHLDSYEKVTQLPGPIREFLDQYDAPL
UniProt P40763: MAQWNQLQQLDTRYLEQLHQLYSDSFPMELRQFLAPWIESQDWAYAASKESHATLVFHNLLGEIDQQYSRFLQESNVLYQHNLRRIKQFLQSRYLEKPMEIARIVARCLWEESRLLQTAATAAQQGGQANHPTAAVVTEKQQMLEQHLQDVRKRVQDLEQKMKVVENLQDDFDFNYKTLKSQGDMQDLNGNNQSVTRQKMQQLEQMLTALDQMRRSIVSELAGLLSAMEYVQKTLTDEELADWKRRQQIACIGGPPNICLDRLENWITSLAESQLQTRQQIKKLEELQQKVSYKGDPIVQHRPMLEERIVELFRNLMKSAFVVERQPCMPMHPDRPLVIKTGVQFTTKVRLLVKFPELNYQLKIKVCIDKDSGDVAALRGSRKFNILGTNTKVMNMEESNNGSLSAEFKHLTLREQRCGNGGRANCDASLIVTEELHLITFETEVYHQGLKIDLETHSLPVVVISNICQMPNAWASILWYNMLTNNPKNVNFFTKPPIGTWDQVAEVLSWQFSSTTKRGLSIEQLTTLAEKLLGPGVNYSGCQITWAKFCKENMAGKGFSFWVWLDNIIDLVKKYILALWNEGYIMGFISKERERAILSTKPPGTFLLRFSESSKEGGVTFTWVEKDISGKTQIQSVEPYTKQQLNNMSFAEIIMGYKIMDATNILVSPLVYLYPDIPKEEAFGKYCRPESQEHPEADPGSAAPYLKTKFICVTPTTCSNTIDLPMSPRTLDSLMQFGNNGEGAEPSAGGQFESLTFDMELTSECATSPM

B1: Flag-tagged Kremen2 (Kringle containing transmembrane protein 2) (receptor, UniProt Q8NCW0 26-462)
chain: GSLHSPGLSECFQVNGADYRGHQNRTGPRGAGRPCLFWDQTQQHSYSSASDPHGRWGLGAHNFCRNPDGDVQPWCYVAETEEGIYWRYCDIPSCHMPGYLGCFVDSGAPPALSGPSGTSTKLTVQVCLRFCRMKGYQLAGVEAGYACFCGSESDLARGRLAPATDCDQICFGHPGQLCGGDGRLGVYEVSVGSCQGNWTAPQGVIYSPDFPDEYGPDRNCSWALGPPGAALELTFRLFELADPRDRLELRDAASGSLLRAFDGARPPPSGPLRLGTAALLLTFRSDARGHAQGFALTYRGLQDAAEDPEAPEGSAQTPAAPLDGANVSCSPRPGAPPAAIGARVFSTVTAVSVLLLLLLGLLRPLRRRSCLLAPGKGPPALGASRGPRRSWAVWYQQPRGVALPCSPGDPQAEGSAAGYRPLSASSQSSLRSLISAL

Columns and labels:
[1] = molecular target: T1, Flag-tagged Kremen2 (Kringle containing transmembrane protein 2) (UniProt Q8NCW0); experiment: co-IP; HEK293T transfected with Flag-Krm2; lysate in IP lysis buffer incubated with protein A/G magnetic beads and anti-Flag or normal IgG overnight at 4 °C; blots for EGFR, AKT, STAT3, SOCS3
T1 sequence: B1 chain

[2] = molecular target: suppressor of cytokine signaling 3 (SOCS3), endogenous in H1703 (human (endogenous in H1703)) (UniProt O14543); experiment: co-IP; endogenous proteins in H1703 lysate; reciprocal IP with anti-EGFR or anti-SOCS3, protein A/G magnetic beads, overnight at 4 °C
[3] = molecular target: epidermal growth factor receptor (EGFR), endogenous in H1703 (human (endogenous in H1703)) (UniProt P00533); experiment: as above
[4] = molecular target: His-tagged SOCS3 (UniProt O14543); experiment: pull-down; HEK293T co-transfected with His-SOCS3 and Flag-Krm2; lysate (150 mM NaCl, 10 mM imidazole, 0.05% Triton-100, 0.02 M Tris-HCl pH 8.0) on Ni-NTA agarose beads 2 h at 4 °C; His-SOCS3 held, blot for Kremen2

Row | Molecule | binding [1] | other results
1 | STAT3, endogenous in HEK293T (from UniProt P40763 1-770) | no binding | –
2 | epidermal growth factor receptor (EGFR), endogenous in H1703 (from UniProt P00533 25-1210) | – | binding [2]: binds
3 | epidermal growth factor receptor (EGFR), endogenous in HEK293T (from UniProt P00533 25-1210) | no binding | –
4 | suppressor of cytokine signaling 3 (SOCS3), endogenous in H1703 (from UniProt O14543 1-225) | – | binding [3]: binds
5 | suppressor of cytokine signaling 3 (SOCS3), endogenous in HEK293T (from UniProt O14543 1-225) | binds | –
6 | B1 | – | binding [4]: binds
